# Data as given in the supplement of paper PMC8728848.
# Some of the results follow.
# Columns and labels:
# Test in all cases: glycan array binding signal (z-score within array); higher = stronger binding
# Conditions in all cases: glycan notation: IUPAC condensed, linker removed
# [1] = target: Gal(b1-4)GlcNAc(b1-3)[GlcNAc(b1-6)]Gal(b1-4)GlcNAc
# Outline: (§1)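 Columns mapping to the same glycan were averaged after glycan names were converted to IUPAC-condensed notation. The data come from 3228 arrays in the Consortium for Functional Glycomics database, limited to those with an available protein sequence. Binding is reported as a within-array Z-score averaged across arrays of one protein sequence and across linkers.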
# [2] = target: Gal(b1-4)GlcNAc(b1-6)Gal(b1-4)GlcNAc
# Outline: as §1
# [3] = target: Gal(b1-4)GlcNAc(b1-6)Gal(b1-4)GlcNAc(b1-6)GalNAc
# Outline: as §1
# [4] = target: Gal(b1-4)GlcNAc(b1-6)GalNAc
# Outline: as §1
# [5] = target: Gal(b1-4)GlcNAc(b1-6)[Gal(b1-3)]GalNAc
# Outline: as §1
# Gal3S(b1-3)GalNAc = target: Gal3S(b1-3)GalNAc
# Outline: as §1
# Gal3S(b1-3)GlcNAc = target: Gal3S(b1-3)GlcNAc
# Outline: as §1
# [6] = target: Gal3S(b1-3)[Fuc(a1-4)]GlcNAc
# Outline: as §1
# Gal3S(b1-4)Glc = target: Gal3S(b1-4)Glc
# Outline: as §1
# Gal3S(b1-4)Glc6S = target: Gal3S(b1-4)Glc6S
# Outline: as §1
# Gal3S(b1-4)GlcNAc = target: Gal3S(b1-4)GlcNAc
# Outline: as §1
# Gal3S(b1-4)GlcNAc6S = target: Gal3S(b1-4)GlcNAc6S
# Outline: as §1
# [7] = target: Gal3S(b1-4)[Fuc(a1-3)]Glc
# Outline: as §1
# Gal3S4S(b1-4)GlcNAc = target: Gal3S4S(b1-4)GlcNAc
# Outline: as §1
# Gal3S6S(b1-4)GlcNAc = target: Gal3S6S(b1-4)GlcNAc
# Outline: as §1
# Gal3S6S(b1-4)GlcNAc6S = target: Gal3S6S(b1-4)GlcNAc6S
# Outline: as §1
# Gal4S(b1-4)GlcNAc = target: Gal4S(b1-4)GlcNAc
# Outline: as §1
# Gal4S6S(b1-4)GlcNAc = target: Gal4S6S(b1-4)GlcNAc
# Outline: as §1
# Gal6S(b1-4)Glc = target: Gal6S(b1-4)Glc
# Outline: as §1
# Gal6S(b1-4)Glc6S = target: Gal6S(b1-4)Glc6S
# Outline: as §1
# Gal6S(b1-4)GlcNAc = target: Gal6S(b1-4)GlcNAc
# Outline: as §1
# Gal6S(b1-4)GlcNAc6S = target: Gal6S(b1-4)GlcNAc6S
# Outline: as §1
# GalNAc(a1-3)Gal = target: GalNAc(a1-3)Gal
# Outline: as §1
# GalNAc(a1-3)GalNAc = target: GalNAc(a1-3)GalNAc
# Outline: as §1
# GalNAc(b1-3)Gal = target: GalNAc(b1-3)Gal
# Outline: as §1
# [8] = target: GalNAc(b1-3)Gal(a1-4)Gal(b1-4)GlcNAc
# Outline: as §1
# [9] = target: GalNAc(b1-3)Gal(a1-4)Gal(b1-4)GlcNAc(b1-3)Gal(b1-4)Glc
# Outline: as §1
# GalNAc(b1-3)GalNAc = target: GalNAc(b1-3)GalNAc
# Outline: as §1
# GalNAc(b1-4)GlcNAc = target: GalNAc(b1-4)GlcNAc
# Outline: as §1
# [10] = target: GalNAc(b1-4)GlcNAc(b1-2)Man(a1-3)[GalNAc(b1-4)GlcNAc(b1-2)Man(a1-6)]Man(b1-4)GlcNAc(b1-4)GlcNAc
# Outline: as §1
binder,measurement,setting,value
"GALT1 115 D492A (Arabidopsis thaliana), Q8L7F9 (protein) DPMRGSHHHHHHGMASMTGGQQMGRDLYDDDDKSRLQKPYITAAASVVVTPNTTLPMEWLRITLPDFMKEARNTQEAISGDDIAVVSGLFVEQNVSKEEREPLLTWNRLESLVDNAQSLVNGVDAIKEAGIVWESLVSAVEAKKLVDVNENQTRKGKEELCPQFLSKMNATEADGSSLKLQIPCGLTQGSSITVIGIPDGLVGSFRIDLTGQPLPGEPDPPIIVHYNVRLLGDKSTEDPVIVQNSWTASQDWGAEERCPKFDPDMNKKVDDLDECNKMVGGEINRTSSTSLQSNTSRGVPVAREASKHEKYFPFKQGFLSVATLRVGTEGMQMTVDGKHITSFAFRDTLEPWLVSEIRITGDFRLISILASGLPTSEESEHVVDLEALKSPTLSPLRPLDLVIGVFSTANNFKRRMAVRRTWMQYDDVRSGRVAVRFFVGLHKSPLVNLELWNEARTYGDVQLMPFVDYYSLISWKTLAICIFGTEVDSAKFIMKTDDAAFVRVDEVLLSLSMTNNTRGLIYGLINSDSQPIRNPDSKWYISYEEWPEEKYPPWAHGPGYIVSRDIAESVGKLFKEGNLKMFKLEDVAMGIWIAELTKHGLEPHYENDGRIISDGCKDGYVVAHYQSPAEMTCLWRKYQETKRSLCCREW",glycan array binding signal (z-score),[1],-0.25
same,glycan array binding signal (z-score),[2],-0.226
same,glycan array binding signal (z-score),[3],0.674
same,glycan array binding signal (z-score),[4],-0.406
same,glycan array binding signal (z-score),[5],-0.027
same,glycan array binding signal (z-score),Gal3S(b1-3)GalNAc,0.318
same,glycan array binding signal (z-score),Gal3S(b1-3)GlcNAc,-0.028
same,glycan array binding signal (z-score),[6],-0.223
same,glycan array binding signal (z-score),Gal3S(b1-4)Glc,-0.314
same,glycan array binding signal (z-score),Gal3S(b1-4)Glc6S,-0.095
same,glycan array binding signal (z-score),Gal3S(b1-4)GlcNAc,-0.298
same,glycan array binding signal (z-score),Gal3S(b1-4)GlcNAc6S,-0.147
same,glycan array binding signal (z-score),[7],-0.291
same,glycan array binding signal (z-score),Gal3S4S(b1-4)GlcNAc,0.069
same,glycan array binding signal (z-score),Gal3S6S(b1-4)GlcNAc,-0.392
same,glycan array binding signal (z-score),Gal3S6S(b1-4)GlcNAc6S,-0.432
same,glycan array binding signal (z-score),Gal4S(b1-4)GlcNAc,0.055
same,glycan array binding signal (z-score),Gal4S6S(b1-4)GlcNAc,-0.157
same,glycan array binding signal (z-score),Gal6S(b1-4)Glc,-0.222
same,glycan array binding signal (z-score),Gal6S(b1-4)Glc6S,0.389
same,glycan array binding signal (z-score),Gal6S(b1-4)GlcNAc,0.652
same,glycan array binding signal (z-score),Gal6S(b1-4)GlcNAc6S,0.326
same,glycan array binding signal (z-score),GalNAc(a1-3)Gal,-0.316
same,glycan array binding signal (z-score),GalNAc(a1-3)GalNAc,-0.368
same,glycan array binding signal (z-score),GalNAc(b1-3)Gal,-0.147
same,glycan array binding signal (z-score),[8],-0.135
same,glycan array binding signal (z-score),[9],0.091
same,glycan array binding signal (z-score),GalNAc(b1-3)GalNAc,-0.181
same,glycan array binding signal (z-score),GalNAc(b1-4)GlcNAc,-0.261
same,glycan array binding signal (z-score),[10],-0.095
